In all, about 330,000 compounds went through this assay and about 4,200 (1.3%) were called active. The inconclusive results got no clear call from the source; some entries with a clear call stand among them for comparison. Calls come from the whole dose curve; as a rule, active = well fitted activation curve with a large enough effect; inconclusive = small, poorly fitted or top-dose-only effect; inactive = no such curve, though single readings can be large or run the other way. A potency beside an inconclusive call is a rough fit, not a confirmed value.
experiment: qHTS screen for small molecules that induce genotoxicity in human embryonic kidney (HEK293T) cells expressing luciferase-tagged ELG1; settings: HEK293T ELG1-luciferase reporter, luminescence, 16 h; series mostly up to 46 µM; activity change, positive = activation: at the top concentration; note: nearly all actives have a fitted effect of over 60% in size; for activity change, positive = activation: % of control where 0% means no effect
Procedure, shortened: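 DMSO vehicle served as control against compound-treated ELG1-luciferase HEK293T cells; exposure lasted 16 hr at 37 °C and 5% CO2, followed by ONE-Glo luminescence detection after 30 min.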
Potency is the fitted concentration of half-maximal effect; tags give direction and shape of the fitted curve.

| Structure (SMILES) | activity change, positive = activation | Potency |
| --- | --- | --- |
| Cc1ccc(NC(=O)CNC(=O)c2cccs2)nc1 | inactive: 1.97% | – |
| O=C(/C(C=Nc1ccc(F)cc1)=C(/O)c1ccco1)C(F)(F)F | – | active: 7.31 µM |
| O=C(N/N=C/c1ccc2c(c1)OCO2)c1ccc(COCC(F)(F)C(F)F)cc1 | – | inconclusive: 14.6 µM [activator, partial curve, poor fit] |
| COc1cc2cc(CN(CCCN3CCOCC3)Cc3nnnn3Cc3ccccc3)c(=O)[nH]c2cc1OC | inactive: 2.03% | – |
| COCCN(C(=S)Nc1c(C)cccc1C)C(C)c1ccco1 (stereo not given) | inactive: -0.0133% | – |
| COc1ccc(NC(=O)COc2cccc3c2CCNC3=O)cc1 | – | inconclusive: 11.6 µM [activator, partial curve, poor fit] |
| Cc1ccc(-c2nc3cccnc3s2)cc1NS(=O)(=O)c1ccc2c(c1)CCCC2 | inactive: 0.509% | – |
| CN1c2ccccc2C(C)(C)C12C=Nc1c(ccc3ccccc13)O2 (stereo not given) | inactive: -1.57% | – |
| COc1ccc2c(c1)O/C(=C\c1ccco1)C2=O | – | inconclusive: 16.4 µM [activator, single point] |
| O=C(N/N=C/C(Br)=C/c1ccccc1)NC1CCCCC1 | – | inconclusive: 32.6 µM [activator, partial curve, poor fit] |
| CNC(=O)/C(C#N)=C/c1ccc(-c2ccc(Cl)cc2)o1 | – | inconclusive: 10.3 µM [activator, partial curve] |
| C=CCNC(=O)c1c(CS(=O)(=O)c2ccccc2)noc1C(=O)NCc1ccccc1 | – | inconclusive: 32.6 µM [activator, partial curve, poor fit] |
| O=C(Nc1ccc(Cl)cc1Cl)c1ccc2c(c1)OCCO2 | – | inconclusive: 0.517 µM [activator, full curve] |
| COc1cc(OC)c(-c2nn3c(C4CCCCC4)nnc3s2)cc1OC | inactive: 0.0119% | – |
| Cc1nc2c(cc1C#N)C(=O)c1ccccc1-2 | inactive: 3.23% | – |
| CC(C)=NNc1nc(-c2ccccc2)cs1 | – | inconclusive: 16.4 µM [activator, partial curve, poor fit] |
| C=C1CCN([C@H](C(=O)OCc2cccc(C)c2)C(C)C)S(=O)(=O)c2ccccc21 | inactive: -3.99% | – |
| O=C(Nc1ccccc1)N(O)c1ccc(Cl)cc1 | – | inconclusive: 13 µM [activator, partial curve, poor fit] |
| O=C(O)c1ccc(-c2noc(-c3cccc(Cl)c3)n2)cc1 | – | inconclusive: 18.3 µM [activator, partial curve, poor fit] |
| c1ccc2oc(-c3csc(N4CCOCC4)n3)cc2c1 | – | inconclusive: 0.366 µM [activator, partial curve, poor fit] |
| COc1ccc2cc(CCOC3CCCCO3)ncc2c1 (stereo not given) | – | inconclusive: 1.16 µM [activator, full curve] |
| CC(=O)Nc1ccc(NC(=S)NC(=O)C2CC2)cc1 | – | inconclusive: 14.6 µM [activator, partial curve, poor fit] |
| Cc1ccnc(NC(=O)C2CC(=O)N(Cc3ccccc3)C2)c1 (stereo not given) | – | active: 3.26 µM |
| O=c1cc(-c2cccc(F)c2)[nH]c2ccccc12 | – | inconclusive: 10.3 µM [activator, partial curve, poor fit] |
| CCOC(=O)N1CCN(S(=O)(=O)c2ccc(C(=O)Nc3nnc(CC)o3)cc2)CC1 | inactive: -2.12% | – |

| Structure (SMILES) | activity change, positive = activation | Potency |
| --- | --- | --- |
| Cc1ccc(NC(=O)N/C=C/c2ccccc2)cc1 | – | inconclusive: 1.84 µM [activator, full curve] |
| COc1ccc(C(=O)N[C@H](C(=O)NCc2cccs2)C(C)C)cc1 | inactive: -0.938% | – |
| Cc1nnc(SCc2cccc3ccccc23)s1 | – | inconclusive: 20.6 µM [activator, single point] |
| O=C(Nc1ccc(Oc2cccnc2)cc1)c1ccccc1Cl | inactive: -3.15% | – |
| Cc1ccnc(N(C(=O)c2cccs2)C(=O)c2cccs2)c1 | – | active: 2.06 µM |
| CCS(=O)(=O)c1ncc(Cl)c(C(=O)Nc2ccccc2OC)n1 | – | inconclusive: 5.17 µM [activator, single point] |
| O=C(Oc1cccc(-c2cnc3ccccc3n2)c1)c1ccco1 | – | inconclusive: 3.26 µM [activator, full curve, poor fit] |
| O=C(CSc1ncccn1)N/N=C/c1ccc2c(c1)OCO2 | – | inconclusive: 20.6 µM [activator, partial curve] |
| Cc1nc(C)c(C(=O)Nc2ncc([N+](=O)[O-])s2)o1 | – | inconclusive: 0.58 µM [activator, full curve, poor fit] |
| CCOC(=O)CSc1ncnc2c1cnn2-c1ccc(C)cc1 | – | inconclusive: 23.1 µM [activator, partial curve, poor fit] |
| COc1ccc(C(OCC2CO2)c2ccc(OC)cc2)cc1 (stereo not given) | inactive: 4.59% | – |
| Cc1c(C(=O)Nc2cccc(F)c2)cnn1-c1ccccc1 | – | inconclusive: 5.8 µM [activator, partial curve] |
| O=C(NC(=S)NCc1nc2ccccc2[nH]1)c1ccccc1F | – | inconclusive: 14.6 µM [activator, partial curve, poor fit] |
| O=[N+]([O-])c1ccc2nc(-c3ccc(OC(F)F)cc3)cn2c1 | – | inconclusive: 5.17 µM [activator, partial curve] |
| COc1cccc(/C=N/Nc2ncnc(Cl)c2N)c1O | – | active: 13 µM |
| N#Cc1cc2c(nc1SCc1nc3ccccc3[nH]1)CCC2 | – | inconclusive: 2.59 µM [activator, partial curve] |
| O=C(CCc1ccccc1)Nc1ccc(NC(=O)c2ccco2)nc1 | – | inconclusive: 9.2 µM [activator, partial curve] |
| Cc1ccc(-c2nc3ccccc3nc2NN)cc1 | – | active: 8.2 µM |
| CC(=O)c1cc(C#N)c(SCC(=O)C(C)(C)C)nc1C | – | inconclusive: 8.91 µM [activator, partial curve, poor fit] |
| COc1cc2ccccc2cc1C(=O)Nc1ccccc1Cl | – | inconclusive: 4.11 µM [activator, full curve, poor fit] |
| CCSc1nc(-c2cccnc2)ccc1C#N | inactive: -1.61% | – |
| CN(C)c1nc(-c2ccccn2)nnc1-c1ccccc1 | – | inconclusive: 2.91 µM [activator, partial curve, poor fit] |
| Cc1ccc(S(=O)(=O)NCC(=O)NNC(=O)c2ccc(Br)cc2)cc1C | inactive: 0.75% | – |
| Nc1cccc(CCc2nc3cc4ccccc4cc3[nH]2)c1 | – | active: 18.4 µM |
| CCCc1cc(=O)oc2cc(OCC(=O)Nc3ccccn3)ccc12 | – | active: 20.6 µM |

| Structure (SMILES) | activity change, positive = activation | Potency |
| --- | --- | --- |
| c1ccc(-c2cc(-c3nnc4n3N=C(c3ccc5ccccc5c3)CS4)[nH]n2)cc1 | – | inconclusive: 3.66 µM [activator, single point] |
| CC(C)CCNC(=O)NC(=O)COC(=O)C1CCN(S(=O)(=O)c2ccccc2F)CC1 | inactive: -0.302% | – |
| CN(Cc1nccn1C)C(=O)CC1C(=O)NCCN1CC(c1ccccc1)c1ccccc1 (stereo not given) | inactive: -1.06% | – |
| Cc1cccc(C)c1Nc1c(-c2ccccn2)nc2ccccn12 | – | inconclusive: 35.5 µM [activator, single point] |
| CC(Sc1nc(N)cc(N)n1)C(=O)Nc1ccc(N2CCOCC2)cc1 (stereo not given) | inactive: 0.557% | – |
| COC(=O)c1ccc2c(=O)n(Cc3ccco3)c(SCC(=O)Nc3ccc(C)c(Cl)c3)nc2c1 | – | inconclusive: 29.1 µM [activator, partial curve, poor fit] |
| N/C(=N\OC(=O)c1ccc(Cl)cc1)c1[nH]ncc1Br | – | inconclusive: 2.59 µM [activator, partial curve] |
| Cc1nc2nc(NC(=O)c3ccco3)nn2c(C)c1Cl | – | active: 18.3 µM |
| Cn1nnnc1SCc1csc(Nc2ccccc2)n1 | – | inconclusive: 11.6 µM [activator, partial curve, poor fit] |
| CC1CCCC(C)N1C(=O)c1cc(-c2ccc3c(c2)OCO3)on1 (stereo not given) | inactive: -1.45% | – |
| O=C(Cn1nnc(-c2ccccc2Cl)n1)N1CCCCC1 | – | inconclusive: 18.3 µM [activator, partial curve] |
| O=C(Nc1cccc(Cl)c1)Nc1nccs1 | – | inactive |
| CCN(C[C@H]1N[C@@](C)(C(=O)OC)[C@H]2C(=O)N(Cc3ccccc3)C(=O)[C@@H]12)C(=O)c1ccc(C(C)(C)C)cc1 | inactive: -7.96% | – |
| Oc1cccc(/C=C/c2ccc3cccc(O)c3n2)c1 | – | inconclusive: 6.51 µM [activator, single point] |
| CC(Sc1nc2ccccc2[nH]1)C(=O)O (stereo not given) | inactive: -0.809% | – |
| O=C(N/N=C/c1cccnc1)c1cc(Br)ccc1O | – | inconclusive: 16.4 µM [activator, single point] |
| O=C(Nc1ccc(Cl)cc1)c1ccc2snnc2c1 | – | inconclusive: 11.6 µM [activator, partial curve, poor fit] |
| Cc1ccnc(N2C(=O)c3ccccc3C2O)c1 (stereo not given) | – | active: 1.84 µM |
| O=C(OCc1nc2ccccc2s1)c1cc2ccccc2oc1=O | – | inconclusive: 29.1 µM [activator, single point] |
| c1ccc(-c2onc3cc4c(cc23)OCCO4)cc1 | – | inconclusive: 9.2 µM [activator, partial curve] |
| C=CCC[C@H](Cc1ccc(F)cc1)C(=O)OC[C@@H](Cc1c[nH]c2ccccc12)NC(=O)[C@H](CC=C)CC(=O)N(CCO)Cc1ccccc1 | inactive: -12.6% | – |
| CCOc1cc(C2C3=C(CC(C)(C)CC3=O)N(C)C3=C2C(=O)CC(C)(C)C3)ccc1O | inactive: 0.17% | – |
| COc1ccc(C(C#N)N2N=C(c3ccccc3)CC2c2ccccc2)cc1OC (stereo not given) | – | inconclusive: 14.6 µM [activator, partial curve, poor fit] |
| O=C(c1cc(-c2ccccc2)on1)N1CCCC1 | – | active: 1.64 µM |
| N=c1c(C(=O)NC2CCCC2)cc2c(=O)n3ccccc3nc2n1C1CCCCC1 | inactive: 0.772% | – |

Source: PubChem BioAssay AID504466 (National Center for Advancing Translational Sciences (NCATS), 2011)
